Each structure is given as a SMILES string. Out of some 39,000 compounds screened, about 220 (0.56%) showed activity. The list shows a part of the results.

This is an account of results in the supplement of paper PMC9446081.
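Further: static incubation at 37 °C against the wild-type strain, values averaged over two biological replicates.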

For the assay, the system named is Escherichia coli K-12 BW25113. As to the kind of experiment: relative growth (OD600 normalised to plate interquartile mean) (fraction); higher = less growth inhibition, active = 0.2 or less. The conditions noted are these: 50 µM; LB; incubation time: overnight (16-24 h).
With `C[C@H](O)C#Cc1ccc2c(c1)O[C@H](CN(C)C(=O)Cc1ccccn1)[C@H](C)CN([C@H](C)CO)S2(=O)=O`, the relative growth was inactive: 0.989.
Then `C[C@@H]1CN([C@@H](C)CO)C(=O)Cc2cc(NS(=O)(=O)c3ccc(Cl)cc3)ccc2O[C@@H]1CN(C)Cc1ccc(Oc2ccccc2)cc1`, with inactive: 0.989; and `CCCNC(=O)N1C[C@H](O)COC[C@@H]2O[C@H](CC(=O)N3CCOCC3)CC[C@H]21`, with inactive: 0.974.
Then `C[C@@H]1CCCCO[C@H](CN(C)Cc2ccc3c(c2)OCO3)[C@@H](C)CN([C@H](C)CO)C(=O)c2cc(NS(=O)(=O)c3cccs3)ccc2O1`, with inactive: 1; and `Nc1nc(=O)n([C@@H]2O[C@H](CO)[C@@H](O)[C@@H]2F)cc1I`, with inactive: 0.614; and `C[C@H]1CN([C@@H](C)CO)C(=O)Cc2cc(NS(=O)(=O)c3cccs3)ccc2O[C@@H]1CN(C)C(=O)Nc1cccc2ccccc12`, with inactive: 1.
The result for `C[C@@H]1CCCCO[C@H](CN(C)Cc2ccc(C(F)(F)F)cc2)[C@H](C)CN([C@@H](C)CO)C(=O)c2cc(NC(=O)NC3CCCCC3)ccc2O1` reads inactive: 0.971; that for `C[C@@H]1CN([C@@H](C)CO)C(=O)c2cccc(NC(=O)c3ccc(-c4nccs4)cc3)c2O[C@@H]1CN(C)S(=O)(=O)c1ccc(Cl)cc1`, inactive: 1.02.
On to `O=C(NC[C@H]1CCCO1)c1ccc[nH]1`, for which the relative growth was inactive: 1.04.
The result for `C[C@@H]1CN([C@@H](C)CO)C(=O)c2cc(NC(=O)Nc3ccc(F)cc3)ccc2O[C@@H]1CN(C)Cc1ccc(C(=O)Nc2ccccc2N)cc1` reads inactive: 1.01; that for `CC(=O)c1ccc(S(=O)(=O)N2[C@@H]3CC[C@@H](C3)[C@H]2c2nc3cccc(OCc4ccc(F)cc4)c3[nH]2)cc1`, inactive: 0.99; that for `CC(C)N1C[C@H](C)[C@@H](CN(C)Cc2ccc(Oc3ccccc3)cc2)Oc2c(NC(=O)c3ccccn3)cccc2C1=O`, inactive: 1.03.
The result for `C[C@@H]1CN([C@@H](C)CO)S(=O)(=O)c2ccc(C3=CCCCC3)cc2O[C@@H]1CN(C)Cc1cncnc1` reads inactive: 1; that for `C[C@@H]1CN([C@H](C)CO)C(=O)Cc2cc(NC(=O)Nc3ccc(F)cc3)ccc2O[C@H]1CN(C)CC1CCCCC1`, inactive: 1.06.
Then `C[C@@H]1CN([C@@H](C)CO)C(=O)c2cccc(NS(=O)(=O)c3ccccc3)c2O[C@H]1CN(C)S(=O)(=O)c1ccccc1`, with inactive: 1.01; and `C[C@@H]1CN([C@H](C)CO)C(=O)Cc2cc(NC(=O)Nc3ccc4c(c3)OCO4)ccc2O[C@@H]1CN(C)Cc1ccc(Cl)c(Cl)c1`, with inactive: 1.
`C=CC[C@@H](CC(=O)N[C@H](CO)Cc1ccccc1)C(=O)N[C@H](COC(=O)[C@@H](CC=C)Cc1ccc(F)cc1)Cc1c[nH]c2ccccc12`: the relative growth is inactive: 1.02.
The result for `O=C([O-])C(O)C(O)C(O)C(O)C(O)CO.O=C([O-])C(O)C(O)C(O)C(O)C(O)CO.[Ca+2]` (centres undefined) reads inactive: 1.13; that for `CC(C)NC(=O)N(C)C[C@@H]1OCCCC[C@H](C)Oc2ccc(NC(=O)Nc3ccccc3)cc2C(=O)N([C@H](C)CO)C[C@@H]1C`, inactive: 0.995.
The result for `C[C@@H]1CN([C@@H](C)CO)C(=O)c2cc(NC(=O)Cc3ccccc3)ccc2O[C@H]1CN(C)S(=O)(=O)c1cn(C)cn1` reads inactive: 0.98; that for `C[C@@H]1CN([C@@H](C)CO)C(=O)c2cc(NC(=O)CCCN(C)C)ccc2O[C@H]1CN(C)C(=O)NC1CCCCC1`, inactive: 1.01; that for `C[C@@H]1CN([C@H](C)CO)C(=O)Cc2cc(NC(=O)CCCCCC(=O)Nc3ccccc3N)ccc2O[C@@H]1CN(C)S(=O)(=O)c1cn(C)cn1`, inactive: 1.
The result for `C[C@H]1CN([C@@H](C)CO)C(=O)c2cccc(NS(=O)(=O)c3cn(C)cn3)c2O[C@@H]1CN(C)C(=O)Nc1ccc(F)cc1` reads inactive: 0.988; that for `CC(C)NC(=O)N(C)C[C@@H]1Oc2ccc(NC(=O)Nc3ccc4c(c3)OCO4)cc2C(=O)N([C@@H](C)CO)C[C@H]1C`, inactive: 0.879.
`C[C@@H]1CCCCO[C@H](CN(C)Cc2ccc(Cl)c(Cl)c2)[C@@H](C)CN([C@@H](C)CO)C(=O)c2cc(NC(=O)Nc3ccc4c(c3)OCO4)ccc2O1`: the relative growth is inactive: 0.985.
Then `COc1cccc(NC(=O)N[C@@H]2CC[C@@H](CC(=O)N3CCN(C)CC3)O[C@H]2CO)c1`, with inactive: 1.02; and `N=C(N)NCCC[C@@H]1NC(=O)[C@@H](N)CSSC[C@@H](C(=O)O)NC(=O)[C@H](CC(=O)O)NC(=O)[C@@H]2CCCN2C(=O)CNC(=O)[C@H](CCCCN)NC(=O)[C@H](CC(=O)O)NC(=O)CNC1=O`, with inactive: 1.02.
As to `O=C(CN1CCOCC1)N[C@H]1CC[C@@H](CCn2cc(C3CC3)nn2)O[C@@H]1CO`, the relative growth was inactive: 0.997.
The result for `COc1ccc(S(=O)(=O)Nc2ccc3c(c2)C(=O)N([C@@H](C)CO)C[C@@H](C)[C@H](CN(C)C(=O)NC2CCCCC2)OCCCC[C@H](C)O3)cc1` reads inactive: 1.01.
The result for `C[C@@H]1CN([C@H](C)CO)C(=O)Cc2cc(NC(=O)Nc3cccc4ccccc34)ccc2O[C@H]1CN(C)S(=O)(=O)c1ccc(Cl)cc1` reads inactive: 1.04; that for `CCCCC[C@@H](C[C@@H](CC(=O)O)O[C@H]1O[C@@H](CO)[C@@H](O[C@H]2O[C@@H](CO)[C@@H](O)[C@@H](O)[C@@H]2O)[C@@H](O)[C@@H]1O)OC(=O)C[C@H](O)C[C@H](CCCCC)O[C@H]1O[C@@H](CO)[C@@H](O)[C@@H](O)[C@@H]1O`, inactive: 1.01.
Then `COc1ccc(S(=O)(=O)N(C)C[C@H]2OCCCC[C@@H](C)Oc3ccc(NC(=O)Nc4ccccc4)cc3C(=O)N([C@@H](C)CO)C[C@@H]2C)cc1`, with inactive: 0.88; and `COc1ccc(NC(=O)N(C)C[C@H]2Oc3c(NC(=O)c4cc(C)nn4C)cccc3C(=O)N([C@H](C)CO)C[C@H]2C)cc1`, with inactive: 0.983.
For `C[C@@H]1CN([C@H](C)CO)C(=O)c2cc(NC(=O)C3CC3)ccc2O[C@H]1CN(C)Cc1ccc(-c2ccccc2)cc1`, the relative growth is inactive: 1.03.
Turning to `CCS(=O)(=O)N1CCC(C(=O)N(C)C)CC1`, the relative growth is inactive: 1.01.
The result for `O=C1CNC(=O)N1CC1CCNCC1` reads inactive: 1.03.
The result for `CN[C@H]1CCS(=O)(=O)C1` reads inactive: 0.988; that for `C[C@@H]1CN([C@H](C)CO)C(=O)c2cccc(NC(=O)c3ccc(-c4nccs4)cc3)c2O[C@H]1CN(C)C(=O)Nc1ccc(F)cc1`, inactive: 1.
Then `C[C@H](CO)N1C[C@H](C)[C@@H](CN(C)Cc2ccc(Cl)c(Cl)c2)OCCCC[C@H](C)Oc2ccc(NC(=O)CCC(F)(F)F)cc2C1=O`, with inactive: 0.993; and `C[C@@H]1CN([C@@H](C)CO)C(=O)Cc2cc(NC(=O)Cc3ccccc3)ccc2O[C@@H]1CN(C)Cc1ccc(-c2ccccc2)cc1`, with inactive: 1.05; and `COc1ccc(S(=O)(=O)Nc2ccc3c(c2)C(=O)N([C@H](C)CO)C[C@@H](C)[C@@H](CN(C)S(=O)(=O)c2cn(C)cn2)O3)cc1`, with inactive: 1.02.
For `CC(C)NC(=O)N(C)C[C@H]1OCCCC[C@@H](C)Oc2ccc(NS(=O)(=O)c3cn(C)cn3)cc2C(=O)N([C@@H](C)CO)C[C@@H]1C`, the relative growth is inactive: 0.981.
Then `CCN1C(=O)CN(CC(=O)O)C1=O`, with inactive: 1.04; and `O=C(C[C@@H]1CC[C@H](NC(=O)c2ccc(F)cc2)[C@H](CO)O1)NCc1ccncn1`, with inactive: 1.01.
`C[C@H](CO)N1C[C@H](C)[C@H](CN(C)S(=O)(=O)c2cn(C)cn2)Oc2ccc(NC(=O)Nc3ccc4c(c3)OCO4)cc2CC1=O`: the relative growth is inactive: 0.979.
Consider `CCCN1C[C@@H](C)[C@@H](OC)CN(C)C(=O)c2cc(NS(=O)(=O)c3cn(C)cn3)ccc2OC[C@@H]1C`, for which the relative growth was inactive: 0.98.
Consider `Cn1ccc(CO)n1`, for which the relative growth was inactive: 1.01.
The result for `O=C(NO)c1ccc(C(=O)N/N=C/c2ccc(B(O)O)cc2)cc1` reads inactive: 0.977; that for `O=C(O[C@@H]1Cc2c(O)cc(O)cc2O[C@@H]1c1cc(O)c(O)c2c(=O)c(O)cc([C@H]3Oc4cc(O)cc(O)c4C[C@H]3O)c-2c1)c1cc(O)c(O)c(O)c1`, inactive: 0.941.
Then `C[C@H](CO)N1C[C@H](C)[C@H](CN(C)Cc2ccc3c(c2)OCCN3C)OCc2cn(nn2)CCCC1=O`, with inactive: 0.954; and `C[C@@H]1CN([C@@H](C)CO)C(=O)c2cc(NC(=O)Nc3cccc4ccccc34)ccc2O[C@@H](C)CCCCO[C@H]1CN(C)CC1CC1`, with inactive: 1.
Then `CC(C)c1ccc(C(C)(C)CO)cc1`, with inactive: 0.975; and `C[C@@H]1CCCCO[C@H](CN(C)Cc2ccccc2)[C@@H](C)CN([C@@H](C)CO)C(=O)c2cc(NC(=O)CCC(F)(F)F)ccc2O1`, with inactive: 0.991.
In the case of `O=C(C[C@H]1CC[C@@H](NS(=O)(=O)c2ccccc2)[C@@H](CO)O1)NCc1ccncn1`, the relative growth is inactive: 1.01.
Then `C[C@@H]1CN([C@H](C)CO)C(=O)CCCn2nncc2CO[C@@H]1CN(C)C(=O)C1CC1`, with inactive: 1.01; and `O=C1O[C@@H](c2ccccc2)[C@@H](c2ccccc2)N2[C@@H](c3ccc(O)cc3)[C@]3(C(=O)Nc4ccc(C#CC5(O)CCCCCC5)cc43)[C@@H](C(=O)N3CCN(c4ncccn4)CC3)[C@H]12`, with inactive: 1.01.
Then `O=C(C[C@H]1C=C[C@H](NC(=O)CN2CCOCC2)[C@H](CO)O1)NCCc1ccccc1`, with inactive: 0.979.
For the compound `CN(C)C(=O)c1cccc(-c2ccc3n(c2=O)C[C@H]2[C@H](CO)[C@@H](C(=O)NCC4CC4)N[C@@H]32)c1`, the relative growth was inactive: 0.963.
The result for `O=C(O)CCNC(=O)c1cccc([N+](=O)[O-])c1` reads inactive: 0.954.
